Data from PubChem BioAssay AID1159614 (National Center for Advancing Translational Sciences (NCATS), 2016).
Screen size: about 45,000 compounds; about 65 (0.1%) were called active. Calls follow the shape of the dose curve; as a rule, active = well fitted activation curve with a large enough effect; inconclusive = small, poorly fitted or top-dose-only effect; inactive = no such curve, though single readings can be large or run the other way. The list shows a part of the results.

Target: Galactocerebrosidase (Homo sapiens) (UniProt P54803)
Test: A Novel Cell-Based Assay to Identify Small Molecules for B -Galactocerebrosidase; also: 0% is about no effect; nearly all actives have a fitted effect of over 65% in size
Settings: 145M-Twi-hGALC-G270D cells (Twitcher mouse brain line with human GALC G270D), HMU-beta-Gal fluorescence, 48 h; series mostly up to 57.5 µM; activation: at the top concentration
How it was run: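 Brain-derived Twitcher mouse 145M-Twi cells stably expressing human GALC-G270D or wild-type GALC, treated live, then residual GALC activity read by fluorescence of HMU-b-Gal substrate (0.1 mM final) in citrate-phosphate buffer pH 5.2 with sodium taurocholate. Signal increase indicates enhancement.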

Chain of UniProt P54803 (P54803 whole entry, looked up): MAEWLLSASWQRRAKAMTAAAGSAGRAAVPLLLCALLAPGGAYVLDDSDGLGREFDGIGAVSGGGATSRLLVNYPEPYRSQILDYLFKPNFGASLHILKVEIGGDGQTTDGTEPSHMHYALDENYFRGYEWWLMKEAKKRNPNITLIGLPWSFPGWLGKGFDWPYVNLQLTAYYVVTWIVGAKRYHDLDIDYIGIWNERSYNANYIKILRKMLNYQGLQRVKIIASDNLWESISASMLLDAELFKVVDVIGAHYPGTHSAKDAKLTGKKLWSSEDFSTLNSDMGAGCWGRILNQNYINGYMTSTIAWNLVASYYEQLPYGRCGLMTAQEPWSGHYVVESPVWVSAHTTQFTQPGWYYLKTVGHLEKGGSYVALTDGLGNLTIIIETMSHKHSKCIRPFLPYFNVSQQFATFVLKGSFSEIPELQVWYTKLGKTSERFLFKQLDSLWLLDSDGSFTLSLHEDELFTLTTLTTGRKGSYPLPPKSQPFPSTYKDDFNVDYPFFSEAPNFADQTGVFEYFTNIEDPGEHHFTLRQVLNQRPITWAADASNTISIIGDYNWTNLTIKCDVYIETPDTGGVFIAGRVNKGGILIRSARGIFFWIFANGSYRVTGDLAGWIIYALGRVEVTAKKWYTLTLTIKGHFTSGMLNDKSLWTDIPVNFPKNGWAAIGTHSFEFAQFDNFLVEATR

activation, inactive:
CCOC(=O)c1c(C)[nH]c(CCC(=O)NCc2ccc(OC)cc2OC)c1C -11.1%
COc1ccc(OCCCn2c(C3CC(=O)N(c4ccc(F)cc4)C3)nc3ccccc32)cc1 (stereo unspecified) -30.8%
CC(=O)c1cccc(NC(=O)Cn2ccn3nc(-c4ccccc4)cc3c2=O)c1 -2.58%
Cc1cc(Nc2cc(Cl)ccc2C)n2nc(-c3ccccc3)nc2n1 -13.3%
Cc1c(CC(=O)NCCc2ccccc2)c(=O)oc2c(C)c3occ(C(C)(C)C)c3cc12 -11.4%
Cc1cc(C)c2c(NC(=O)c3ccccc3Cl)c(C(=O)NCc3ccc(Cl)cc3)sc2n1 -11.5%
O=C(COc1ccccc1-c1nc(-c2ccccc2)no1)Nc1ccc([N+](=O)[O-])cc1 -12.4%
Cc1ccc(CN(Cc2cccn2-c2nnc(N3CCCC3=O)s2)C(=O)Nc2ccccc2Cl)cc1 -4.59%
Cc1cccc(-n2c3nc(=O)[nH]c(=O)c-3cc3ccc(Cl)cc32)c1C 1.08%
CCOc1ccc(-c2cc(C(=O)NCCc3ccc(C)cc3)c3ccccc3n2)cc1 -12.5%
COc1ccc(NC(=O)c2nnn(-c3ccc(C(C)C)cc3)c2C)c(OC)c1 -10.3%
CC(C)CCNC(=O)c1cc(-c2cccnc2)nc2ccc(S(=O)(=O)N3CCC(C)CC3)cc12 -6.56%
O=C(CSc1nc2c([nH]c3ccccc32)c(=O)n1-c1ccccc1)N1CCCCC1 -1.19%
COc1ccc(OC)c(-c2noc(N3CCN(c4cccc(C(F)(F)F)c4)CC3)n2)c1 -0.874%
COc1cc(OC)c(NC(=O)c2ccc(-n3cnc4cccnc43)cc2)cc1Cl -18.8%
O=C(NCCCN1CCN(c2ccc(F)cc2)CC1)Nc1ccccc1Cl -13.3%
CCOc1cccc2sc(N3CCN(C(=O)c4ccco4)CC3)nc12 -7.55%
Cn1c(CN2CCOCC2)nc2cc(NC(=O)c3ccccc3[N+](=O)[O-])ccc21 -3.75%
CCOc1ccccc1C(=O)N1CCc2cc(OC)c(OC)cc2C1COc1ccc(OC)cc1 (stereo unspecified) -17.8%
Cc1ccc(-c2nc3cccc(C)n3c2Nc2ccc3c(c2)OCO3)o1 -12.9%
Cc1nn(-c2ccccc2)c(OC(=O)c2ccc(Cl)cc2)c1S(=O)(=O)c1ccccc1 -11.6%
COc1cccc(CNC(=O)Cn2ncn3c(cc4ccccc43)c2=O)c1 -4.54%
COc1ccc(OC)c(NC(=O)c2cc3cccc(OC)c3oc2=O)c1 -17.4%
CCCNC(=O)c1ccc(Cn2c(SCC(N)=O)nc3ccccc3c2=O)cc1 -7.65%
O=C(c1cc(-c2ccc(Br)cc2)n[nH]1)N1CCN(S(=O)(=O)c2ccc(Cl)s2)CC1 -1.25%
CC(C)CC(=O)Nc1ccc2nc(SCC(=O)N3CCOCC3)sc2c1 -10.9%
COCCCn1c(SCC(=O)Nc2ccc(OC)cc2)nc2c(sc3ccccc32)c1=O -6.84%
O=C(CSc1nc(=O)n(CCN2CCOCC2)c2c1CCC2)Nc1ccc(F)cc1F -15.4%
CCC(=O)Oc1c(Sc2ccc(C)cc2)c(C)nn1-c1ccccc1 -17.4%
COc1ccc(CNS(=O)(=O)c2cc3c(cc2Cl)NC(=O)CO3)cc1 -12.9%
CCOC(=O)c1cc(-c2ccc(F)cc2)n(CCC(=O)Nc2cc(OC)cc(OC)c2)c1C -26.8%
O=C(CSc1nc2ncccc2o1)Nc1ccc(Cl)cc1F -13.1%
O=C(Nc1ccccc1C(F)(F)F)C1CCN(S(=O)(=O)c2ccccc2)CC1 -15.7%
Cn1c(=O)c2c(nc(N3CCOCC3)n2Cc2ccccc2F)n(C)c1=O -9.32%
O=C(Cn1cc(SCc2ccc(Cl)cc2)c2ccccc21)N1CCOCC1 -14.4%
CCCc1nn2c(=O)cc(COC(=O)c3cccc(NC(=O)c4ccc(OCC)cc4)c3)nc2s1 -15.2%
COc1cc(C2c3c(-c4cc(C)ccc4O)n[nH]c3C(=O)N2Cc2ccco2)cc(OC)c1OC (stereo unspecified) -8.02%
CC(C)Oc1ccc(C(=O)Nc2nnc3n2CCS3)cc1 -19%
COC(=O)CSc1nc2sc3c(c2c(=O)n1-c1ccccc1)C(C)CCC3 (stereo unspecified) -36%
COc1ccc(NC(=O)CSc2nc3ccccc3n2CC(=O)N(C)C2CCCCC2)cc1 -0.298%
COc1ccc(NC(=O)c2cc(S(=O)(=O)N3CCCC(C)C3)cn2C)c(OC)c1 (stereo unspecified) -6.12%
Cc1cc(Cl)ccc1NS(=O)(=O)c1c(C(=O)N2CCCCCC2)c(C)n(C)c1C -14.1%
COc1ccc(CN(Cc2ccco2)C(=O)COc2ccccc2Cl)cc1 -12.4%
COc1ccc(-c2cc(OC(=O)c3cccc(Cl)c3)c3c(C)oc(C)c3c(=O)c2)cc1OC -15%
Cc1ccc(C)c(Cn2c3ccccc3c3cnn(CC(=O)NC4CCCCCC4)c(=O)c32)c1 -13.9%
Cc1ccc(-c2c3c(=O)n(C)c(=O)n(C)c3c3c(-c4cccc(C)c4)nc4ccccc4n23)cc1 -25.6%
COC(=O)c1ccccc1NC(=O)c1ccc2c(c1)CCN2S(=O)(=O)c1ccc(Cl)cc1 -15.9%
Cc1cc(C)c(S(=O)(=O)NCC2CCC(C(=O)NCCc3ccccc3)CC2)c(C)c1 (stereo unspecified) -17.2%
O=c1n(Cc2ccccc2)nc2n1-c1cc(Cl)ccc1OC2 0.146%
Cc1c2cnn(-c3ccccc3)c(=O)c2c(C)n1CCCC(=O)Nc1cccc(F)c1 -13.4%
Cc1c(Cl)cccc1NC(=O)CSc1nc(=O)[nH]c2c1CCC2 -13.8%
O=S(=O)(c1cccc(Cl)c1)n1c(/C=C/c2ccccc2Cl)nc2ccccc21 -14.6%
CCN(CC)c1ccc(NC(=O)Cn2nc3c(cc2=O)CCCC3)c(C)c1 -1.81%
CCc1c(C)sc(NC(=O)c2cc3nc(-c4ccc(OC)cc4)cc(C(F)(F)F)n3n2)c1C(=O)OC -3.94%
COc1cccc(-n2c(SCC(=O)Nc3ccc4c(c3)OCO4)nc3c([nH]c4ccccc43)c2=O)c1 -12.7%
COc1cc(OC)cc(C(=O)N2CCN(C(=O)COc3ccc(C)cc3)CC2)c1 -15%
COc1ccc(-n2nc(C(=O)Nc3cc(C)c(Cl)cc3OC)c3c4ccccc4n(C)c3c2=O)cc1 -10.7%
Cc1ccccc1NC(=O)CSc1nc(-c2cccs2)nc2cc(=O)[nH]n12 -21.2%
COC1=CC(=O)C[C@@H](C)[C@]12Oc1c(Cl)c(OC)cc(OC)c1C2=O -16%
CC(NS(=O)(=O)c1ccc2c(c1)CCN2C(=O)CCCC(=O)O)c1ccccc1 (stereo unspecified) -10.5%
N#Cc1nc(/C=C/c2ccc(F)cc2)oc1N1CCCCCC1 0.221%
Cc1ccccc1NC(=O)c1sc2nc3n(c(=O)c2c1C)N=C(c1ccccc1)CS3 -1.44%
CN(C)c1ccc(NC(=O)CC(NCc2cccnc2)C(=O)O)cc1 (stereo unspecified) -8.08%
COc1ccc(OC)c(N(C)S(=O)(=O)c2ccc3c(c2)NC(=O)CC(=O)N3)c1 -10.3%
COc1ccc(C)cc1NC1(c2ccccc2)C(=O)c2ccccc2C1=O -13.3%
COc1ccc2nc(N3CCN(C(=O)CS(=O)(=O)c4ccc(C)cc4)CC3)sc2c1 -15.2%
Cc1ccc(-c2cnc(C3CC3)o2)cc1S(=O)(=O)Nc1ccc(F)cc1Cl -9.39%
CCOc1ccc(NC(=O)c2cnn3c2NC(C)=C(C(=O)Nc2ccc(Cl)cc2)C3c2ccc(OC)c(OC)c2)cc1 (stereo unspecified) -6.37%
COc1ccc(-n2ccn3c(CC(C)(C)CC(=O)O)nnc3c2=O)cc1 -10.7%
CCC(Sc1nc2nccnc2c(=O)n1Cc1ccc(Cl)cc1)C(=O)NC1CCCCC1 (stereo unspecified) -3.05%
COc1cccc(CNc2sc3c(c2C(=O)Nc2ccc(OC)cc2OC)CCC3)c1 -15.1%
Cc1ccc(NC(=O)CCCn2c(=O)c3cccn3c3cccnc32)c(C)c1 -6.87%
O=c1c(-c2cc(-c3ccccc3)nc3c2COc2ccc(Cl)cc2-3)coc2ccccc12 -3.25%
CC(=O)c1ccc(NC(=O)CSc2nccn2C2CCCC2)cc1 -7.36%
Cc1cccc(N2CCN(c3ccc4cc(S(=O)(=O)N5CCC(C)CC5)ccc4n3)CC2C)c1 (stereo unspecified) -11.2%
CC(C)CNC(=O)C(=O)Nc1c2c(nn1-c1ccc(Cl)cc1)CSC2 -0.892%
CC1CCN(S(=O)(=O)c2ccc3nc(Nc4cccc(F)c4)ccc3c2)CC1 -6.22%
Cc1nn(-c2cccc(Cl)c2)c2nc(-c3cccnc3)cc(C(F)(F)F)c12 -9.66%
COc1ccc(S(=O)(=O)NC(C)(C)CO)cc1-c1nnc2c3ccccc3c(C)nn12 -2.39%
O=c1c(N2CCN(c3ccc(F)cc3)CC2)csc2ccc(F)cc12 -10.6%
COc1ccc(CNC(=O)c2cc3cccc4c3n2CC(C)S4)cc1 (stereo unspecified) -15%
CCOc1ccc(NC(=O)CSc2nc3ccccc3nc2N2CCOCC2)cc1 -8.2%
CCCn1c(=O)c2sccc2n2c(CCCC(=O)N3CCN(c4ccc(OC)cc4)CC3)nnc12 -0.992%
CC(C)CC(=O)Nc1cccc(-c2cn3cccnc3n2)c1 -11.3%
COc1ccc(-c2cc(C(F)(F)F)nc(SCCC(=O)Nc3ccc(F)cc3F)n2)cc1 -2.06%
CCOCCCNC(=O)CN1C(=O)COc2ccc(S(=O)(=O)N3CCOCC3)cc21 -9.6%
O=C(CSc1ccc2nc(-c3ccccc3)cn2n1)Nc1ccccc1 -8.15%
O=C(Nc1ccc(F)cc1F)c1ccc(-n2cnc3cccnc32)cc1 -17.7%
CC(=O)c1ccc(NC(=O)CSc2nnc3c(n2)[nH]c2ccccc23)cc1 -31.2%
COc1ccc(CNC(=O)c2cc(-c3ccc(OC)c(OC)c3)nc3n[nH]c(-c4ccc(C)cc4)c23)cc1 -1.46%
O=C(CCC1N=C2c3ccccc3N=C(SCc3ccc(F)cc3)N2C1=O)N1CCN(c2ccccc2)CC1 (stereo unspecified) -20.3%
Clc1ccc(-c2nc3ncccn3c2Nc2ccc3c(c2)OCCO3)cc1 -13%
CCOC(=O)c1ccc(N2C(=O)c3n[nH]c(-c4cccs4)c3C2c2cccc(O)c2)cc1 (stereo unspecified) -10.8%
COc1ccc(N2CCN(C(=O)CCCCn3c(=O)[nH]c4ccsc4c3=O)CC2)cc1 -1.73%
N#Cc1c(-n2ncnc2-c2ccccc2Cl)sc2c1CCCCC2 -17.8%
COc1ccc(N(C)C(=O)c2oc(=O)c3ccccc3c2-c2ccc(C)cc2)c(OC)c1 -12.4%
